Data from PubChem BioAssay AID624202 (National Center for Advancing Translational Sciences (NCATS), 2012).
About 4,000 (1.1%) of roughly 380,000 compounds were called active. Inconclusive means that the source gave no clear call. Such entries were picked first, then a sample of the others. Calls come from the whole dose curve; as a rule, active = well fitted activation curve with a large enough effect; inconclusive = small, poorly fitted or top-dose-only effect; inactive = no such curve, though single readings can be large or run the other way. Potencies of inconclusive entries are doubtful fits and often do not repeat.

Test: qHTS Assay to Identify Small Molecule Activators of BRCA1 Expression; note: nearly all actives have a fitted effect of over 80% in size
Conditions: MCF7-BRCA1-FFLuc reporter, luminescence, 48 h; activation: at 46.1 µM (top of the series), scaled: vehicle 0%, 10 µM genistein 100% unless noted
Method in brief: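 Luminescence from a BRCA1-driven firefly luciferase in MCF7 cells was read after 48 h compound exposure at 37 C. Data normalized against DMSO and a 10microM genistein activation control, then curve-fitted across the titration.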
Potency is the fitted concentration of half-maximal effect; tags give direction and shape of the fitted curve.

| Compound | Potency | activation |
| --- | --- | --- |
| CC1CCc2nc(NC(=O)Nc3ccc4c(c3)OCO4)sc2C1 (stereo not given) | inconclusive: 2.51 µM [activator, partial curve, poor fit] | – |
| COc1cccc(CNc2cnc3ccccc3c2)c1O | inconclusive: 2.82 µM [activator, partial curve, poor fit] | – |
| Cc1cc(/C=N/NC(=O)c2ccccc2F)c(C)n1-c1ccccc1 | inconclusive: 1 µM [activator, full curve, poor fit] | – |
| CCC(C)(C)NC(=O)/C=C/c1cnc2ccccc2n1 | inconclusive: 1.58 µM [activator, full curve, poor fit] | – |
| CC(C)Cc1ccc(-c2ccc3nccn3c2)cc1 | active: 14.1 µM | – |
| Cc1ccc(C(=O)OCC(=O)c2ccccc2)cc1 | inconclusive: 0.891 µM [activator, full curve, poor fit] | – |
| OC(c1cccc(F)c1)c1ncc(-c2ccc(C(F)(F)F)cc2)[nH]1 (stereo not given) | – | inactive: -8.89% |
| CC1CC(C)CN(C(=O)c2cc3ccccc3o2)C1 (stereo not given) | – | inactive: -10.5% |
| NC(=O)N/N=C\c1cc(Br)ccc1O | – | inactive: -27.2% |
| Nc1nnc(SCc2ccc3c(c2)OCO3)s1 | inconclusive: 35.5 µM [activator, single point] | – |
| CC(C)C[C@@H](CSc1ccc(Br)cc1)N1CCN(C)CCC1=O | active: 10 µM | – |
| Fc1ccc(Nc2ccc3ccccc3n2)c(F)c1 | inconclusive: 1.26 µM [activator, full curve, poor fit] | – |
| Cc1cc(C(F)(F)F)c2c(N)c(C(=O)Nc3cc(C)on3)sc2n1 | inconclusive: 1.26 µM [activator, full curve, poor fit] | – |
| Cc1cc(C(=O)Nc2ccc(Nc3ccccc3)cc2)ccc1[N+](=O)[O-] | – | inactive: -49% |
| CC(=O)c1cccc(NC(=O)c2ccc3c(c2)OCO3)c1 | inconclusive: 10 µM [activator, partial curve, poor fit] | – |
| CNC(=O)c1[nH]cnc1C(=O)N[C@@H](C)C(=O)OC(C)(C)C | – | inactive: -7.96% |
| COc1cccc(-c2nnc(SCC(=O)N3CCOCC3)o2)c1 | active: 12.6 µM | – |
| COc1ccc(C2CC(=O)c3cc(OC)ccc3O2)cc1 (stereo not given) | inconclusive: 17.8 µM [activator, partial curve, poor fit] | – |
| Cc1ccc(/C=C2\SC(=S)N(Cc3ccccc3)C2=O)o1 | – | inactive: -10.2% |
| CCN(C(=O)c1cc2c(=O)n3ccccc3nc2n1C)C1CCCCC1 | – | inactive: 50.3% |
| Clc1ccc(-c2nnc(N3CCOCC3)o2)cc1 | active: 3.98 µM | – |
| COc1ccc(C2c3c(-c4ccccc4O)n[nH]c3C(=O)N2CCc2ccc(OC)c(OC)c2)cc1 (stereo not given) | – | inactive: -86% |
| O=C(CCN1C(=O)/C(=C\C=C\c2ccccc2)SC1=S)Nc1ccccc1C(=O)O | inconclusive: 3.55 µM [activator, partial curve, poor fit] | – |
| O=[N+]([O-])c1ccccc1NCCNc1ncc(C(F)(F)F)cc1Cl | – | inactive: 66% |
| COc1cccc2cc(-c3cn4cccc(C)c4n3)c(=O)oc12 | inconclusive: 1 µM [activator, full curve, poor fit] | – |

| Compound | Potency | activation |
| --- | --- | --- |
| N#Cc1nc(N2CCCCC2)nc(N2CCCCC2)n1 | – | inactive: -0.522% |
| CC(C)(C)C1CCC(=O)N(CCSc2ccccc2)CC1 (stereo not given) | active: 3.55 µM | – |
| CCOC(=O)CN1NC2(CCC(C(C)(C)C)CC2)NC1=S (stereo not given) | – | inactive: -1.67% |
| c1ccc(CSc2nnc(Cc3ccccn3)o2)cc1 | – | inactive: 44.9% |
| COc1ccc(-c2nc(C3CCCCC3)no2)cc1OC | inconclusive: 14.1 µM [activator, partial curve, poor fit] | – |
| CC(C)OC(=O)c1ccc(NC(=O)c2ccccc2)cc1 | active: 2.51 µM | – |
| COc1ccc(CCNC(=O)c2cccs2)cc1 | active: 10 µM | – |
| Fc1ccccc1Cc1cn2cc(-c3ccc(Cl)cc3)nc2s1 | inconclusive: 1 µM [activator, full curve, poor fit] | – |
| COc1ccc(-c2cn3ccc4ccccc4c3n2)cc1 | inconclusive: 3.98 µM [activator, full curve, poor fit] | – |
| Cc1ccc(NC(=O)Cc2cccs2)cc1Cl | active: 11.2 µM | – |
| CC(C)c1ccc(NC(=O)NC2CCCCC2)cc1 | inconclusive: 2.51 µM [activator, full curve, poor fit] | – |
| Cn1nc(C(=O)N2CCCC2)c2ccccc2c1=O | – | inactive: -8.99% |
| O=[N+]([O-])c1ccc(COc2ccc(CN3CCCC3)cc2)cc1 | inconclusive: 1 µM [activator, full curve, poor fit] | – |
| Cc1ccc(OCCNC(=O)c2ccc(C)cc2)cc1 | inconclusive: 14.1 µM [activator, partial curve, poor fit] | – |
| O=C(Nc1ccc(Cl)cn1)c1cc2c(s1)-c1ccccc1OC2 | active: 5.62 µM | – |
| COc1ccc(-c2csc(Nc3ncccn3)n2)cc1C | inconclusive: 0.631 µM [activator, full curve, poor fit] | – |
| O=C(Nc1nc2ccccc2[nH]1)Nc1ccccc1F | inconclusive: 3.16 µM [activator, partial curve, poor fit] | – |
| O=C(O)c1cc(NN=C2CCN(Cc3ccccc3)CC2)ccc1Cl | active: 3.16 µM | – |
| O=C(c1ccc(-c2cccc(Cl)c2Cl)o1)N1CCOCC1 | inconclusive: 1.78 µM [activator, full curve, poor fit] | – |
| CCOC(=O)c1ccc(NC(=S)N2CCC(O)CC2)cc1 | active: 12.6 µM | – |
| COc1ccc(OCC(=O)N2CCc3ccccc32)c([N+](=O)[O-])c1 | inconclusive: 15.8 µM [activator, partial curve, poor fit] | – |
| CC(C)(C)c1ccc(C(=O)NCC(=O)N2CCCC2)cc1 | inconclusive: 8.91 µM [activator, partial curve, poor fit] | – |
| Cc1ccc(-n2ncc3ccccc3c2=O)cc1Cl | inconclusive: 2.82 µM [activator, full curve, poor fit] | – |
| O=C(NNCc1ccccc1)c1ccccn1 | active: 1.12 µM | – |
| O=C(Nc1ccc([N+](=O)[O-])cc1)Nc1ccc2c(c1)OCCO2 | inconclusive: 2 µM [activator, partial curve, poor fit] | – |
